Experimental data published in the RNAGym collection of RNA variant scans (doi:10.7554/elife.90254).
The source gives no read counts; variants with many changes may rest on few reads.

B1: LINE1-mini (parent)
chain: GGCAGAGCUCAACACAGCGUGGCAAAGUGGCUGUGGCUAGACUGCC

Variants of: B1
Test: self-cleavage, relative activity (ratio to wild type); higher = more cleavage; in vitro, sequencing; the parent is a self-cleaving ribozyme
Work on C8G C10A A11G C13A A24U U28G C42U G44A C46U yielded a self-cleavage of 0.
C18U G44A C46U gave a self-cleavage of 0.2.
Variant C8G G21A G33C has a self-cleavage of 0.
For G21A A24G U32G C46U, the self-cleavage was 0.08.
C3A C15A C31U gave a self-cleavage of 0.15.
G29U G40A A41G G44A gave a self-cleavage of 0.16.
Work on G1A G2U A14C G17U C37G yielded a self-cleavage of 0.07.
Variant U20A G22A G33A C45G has a self-cleavage of 0.04.
In the case of C10A A11C G30A C45U, the self-cleavage is reported as 0.04.
Work on G1U A12U A14U G35A yielded a self-cleavage of 0.04.
Work on A4G G7C C8U yielded a self-cleavage of 0.13.
U9A G19A G22A showed a self-cleavage of 0.15.
For A4U U9G G35U, the self-cleavage was 0.09.
Variant G2A C8A G40U A41C has a self-cleavage of 0.06.
For C18A U32A G40C, the self-cleavage was 0.02.
Work on C10A C23A U28C G30U C42G yielded a self-cleavage of 0.01.
With A4U G7A G21U G36A the self-cleavage was 0.05.
Work on G7U C13G G33U yielded a self-cleavage of 0.04.
In the case of C3U G17A U38A, the self-cleavage is reported as 0.12.
In the case of C3U A14U A25G A41C C45U, the self-cleavage is reported as 0.07.
G5C G27C G29C gave a self-cleavage of 0.02.
G2C C23G A24C gave a self-cleavage of 0.01.
A6U C13G U34C showed a self-cleavage of 0.11.
G2C G17A G21U U34G A39G gave a self-cleavage of 0.01.
Work on G5U C15U G17C U20G yielded a self-cleavage of 0.03.
With A6U G7U A24C A39C the self-cleavage was 1.19.
Work on A25G C37U U38G yielded a self-cleavage of 0.01.
For A6C U9A C31G, the self-cleavage was 0.01.
For C3A G22A A26U C37U, the self-cleavage was 0.09.
C13U A25G U32G U43G G44U gave a self-cleavage of 0.04.
G5A C37U C45U showed a self-cleavage of 0.15.
Work on C3U G7A G17U C42U G44C yielded a self-cleavage of 0.08.
Variant A11G C13G C15G C18G G22U has a self-cleavage of 0.01.
In the case of A14C A16C A25C, the self-cleavage is reported as 0.09.
With A6G A25G A41C G44A the self-cleavage was 0.02.
G5U A6G G19A C23A C31G showed a self-cleavage of 0.03.
With G2C A12U C15U U32G the self-cleavage was 0.02.
Variant G2U A4G C10A G30A has a self-cleavage of 0.03.
For A12G A25U C46A, the self-cleavage was 0.02.
Work on G7U A11C G29A U32A yielded a self-cleavage of 0.02.
With A4G G5C C31A C37G U38A the self-cleavage was 0.02.
With A24G U28G G33A the self-cleavage was 0.03.
In the case of A12G G17U A26U, the self-cleavage is reported as 0.05.
Variant G7U U9C A24U G33C has a self-cleavage of 0.04.
In the case of C3A A11U G33U, the self-cleavage is reported as 0.07.
G2C A6U U9G G22U U34C C46G showed a self-cleavage of 0.13.
For C23G A26C G40C, the self-cleavage was 0.21.
With C3A A12U C13A G36U the self-cleavage was 1.07.
A4C A6G G7A G22C gave a self-cleavage of 0.3.
Variant G1A C15G G27A C42U has a self-cleavage of 0.05.
G7U A24U G29C C31G showed a self-cleavage of 0.03.
C10A C15U A25C G35A A39U A41C gave a self-cleavage of 0.04.
C8U A16G A25U G35A G36A showed a self-cleavage of 0.05.
For G7C G19C C45G, the self-cleavage was 0.06.
Work on U9C A12U C42U U43G yielded a self-cleavage of 0.01.
Variant G5U A6U C37A C42U has a self-cleavage of 0.06.
Work on G1U G2C U9A A24G U32G G33C G44C yielded a self-cleavage of 0.02.
Variant G1U A6C A11G G21A has a self-cleavage of 0.04.
A16C C18G C37U C46G showed a self-cleavage of 0.07.
G2C C3A C42U U43A showed a self-cleavage of 0.05.
G2C C8G A25G G36U gave a self-cleavage of 0.06.
Variant A4U A11U G27U G33A C42U C45G has a self-cleavage of 0.01.
Work on C18U A24U C45G yielded a self-cleavage of 0.17.
For U20A A25C G36C U38A, the self-cleavage was 0.01.
Work on G7U C8U G40U yielded a self-cleavage of 0.11.
For G1A G17U G19U U38G, the self-cleavage was 0.05.
C8A A14C C31U G33U C42U showed a self-cleavage of 0.07.
For C3U G5A U28A, the self-cleavage was 0.03.
C3G C15A G17C showed a self-cleavage of 0.81.
A4C A11G A39C gave a self-cleavage of 0.01.
C10U C15A A16G G19A showed a self-cleavage of 0.07.
Work on C8A A14G G22A C46A yielded a self-cleavage of 0.14.
C18G A24U G30U A39U showed a self-cleavage of 0.6.
C10U G17C G22C C42A G44A showed a self-cleavage of 0.01.
Work on G2C G7U C37G C42A yielded a self-cleavage of 0.03.
In the case of C15A G22A C37G, the self-cleavage is reported as 0.03.
Work on A4C C10A G30C yielded a self-cleavage of 0.03.
Work on C8A A16G A25G G29U yielded a self-cleavage of 0.02.
C8A U20G A24G C37U U38C showed a self-cleavage of 0.04.
G7U U9C G40U G44C showed a self-cleavage of 0.01.
In the case of U9G G17U G22C G40U, the self-cleavage is reported as 0.06.
C3A U9C A11U C45A showed a self-cleavage of 0.01.
For C15U A24U A41C, the self-cleavage was 0.55.
